The list shows a part of the results.
These compounds were tested on S. aureus RN4220 (assay: growth inhibition call (relative growth <= 0.2)). Details: 50 µM.

Structure (SMILES)	growth inhibition call
O=C(C[C@@H]1CC[C@H](NC(=O)Nc2ccc3c(c2)OCO3)[C@H](CO)O1)NCCCN1CCOCC1	inactive
Clc1ccc(-c2cnc3ccc(-c4ccccc4)cn23)cc1	inactive
C[C@H]1CN([C@@H](C)CO)C(=O)Cc2cc(NC(=O)Nc3ccc(F)cc3)ccc2O[C@H]1CN(C)Cc1ccc(C(F)(F)F)cc1	inactive
CN(C)CC(=O)N[C@H]1C=C[C@H](CC(=O)NCCN2CCCCC2)O[C@H]1CO	inactive
Cc1noc(C)c1NC(=O)Nc1ccc2c(c1)C(=O)N([C@H](C)CO)C[C@H](C)[C@@H](CN(C)CC1CC1)OCCCC[C@H](C)O2	inactive
C[C@H]1CCCCO[C@@H](CN(C)C(=O)Cc2ccccc2)[C@@H](C)CN([C@@H](C)CO)C(=O)c2cc(NS(=O)(=O)c3ccc(Cl)cc3)ccc2O1	inactive
COc1cc2c(cc1OC)CN(C(=O)[C@@H]1[C@H]3C(=O)O[C@H](c4ccccc4)[C@H](c4ccccc4)N3[C@H](c3ccc(OCCO)cc3)[C@@]13C(=O)Nc1ccc(C#CC4(O)CCCCCC4)cc13)CC2	inactive
S=c1[nH]c2ccccc2s1	inactive
COc1ccccc1CN1C[C@@H](C)[C@H](OC)CN(C)C(=O)c2cc(NC(=O)Nc3ccccc3OC)ccc2OC[C@H]1C	inactive
O=C(Nc1cc(Cl)ccc1Cl)c1cc(Br)ccc1NS(=O)(=O)c1ccc(Cl)c([N+](=O)[O-])c1	active
C[C@@H]1CN([C@@H](C)CO)C(=O)c2cc(NS(=O)(=O)c3cn(C)cn3)ccc2O[C@@H]1CN(C)CC1CCCCC1	inactive
C[C@H]1CN([C@@H](C)CO)C(=O)c2cccc(NS(C)(=O)=O)c2O[C@H]1CN(C)C(=O)NC1CCCCC1	inactive
COCCN[C@H]1CS(=O)(=O)C[C@@H]1O	inactive
C=CCOC(=O)[C@H]1[C@@H]2C(=O)O[C@@H](c3ccccc3)[C@@H](c3ccccc3)N2[C@@H](c2ccc(OCCOC(=O)[C@@H]3C[C@@H]4C(=O)N[C@@H](Cc5ccccc5)C(=O)N4[C@@H]3c3ccc(O)cc3)cc2)[C@]12C(=O)Nc1ccccc12	inactive
C[C@@H]1CN([C@@H](C)CO)C(=O)c2cc(NS(=O)(=O)c3cccs3)ccc2O[C@@H]1CN(C)Cc1ccc(Cl)c(Cl)c1	inactive
COc1ccc(CN(C)C[C@H]2OCCCC[C@@H](C)Oc3ccc(NC(=O)Nc4ccc5c(c4)OCO5)cc3C(=O)N([C@@H](C)CO)C[C@@H]2C)cc1	inactive

Structure (SMILES)	growth inhibition call
COCC(=O)Nc1ccc2c(c1)C(=O)N(C)C[C@H](OC)[C@@H](C)CN(Cc1ccccc1F)[C@H](C)CO2	inactive
CN1CCN(C(=O)C[C@@H]2CC[C@H](NC(=O)c3ccc4c(c3)OCO4)[C@@H](CO)O2)CC1	inactive
CO[C@@H]1CN(C)C(=O)c2cc(NS(C)(=O)=O)ccc2OC[C@H](C)N(C(=O)C2CCOCC2)C[C@H]1C	inactive
C[C@@H]1CN([C@H](C)CO)C(=O)CCCn2nncc2CO[C@H]1CN(C)S(=O)(=O)c1ccc(Oc2ccccc2)cc1	inactive
C[C@]12CC3CC(N)(C1)C[C@@](C)(C3)C2	inactive
Cc1noc(C)c1NC(=O)Nc1ccc2c(c1)C(=O)N([C@@H](C)CO)C[C@H](C)[C@@H](CN(C)C(=O)Nc1cccc3ccccc13)OCCCC[C@@H](C)O2	inactive
O=C1CCC(=O)N1Nc1ccccn1	inactive
COc1ccc(-c2c(C)oc3ccc(Cl)cc23)cc1	inactive
COc1ccc(S(=O)(=O)Nc2ccc3c(c2)C(=O)N([C@@H](C)CO)C[C@@H](C)[C@@H](CN(C)S(=O)(=O)c2ccc(Cl)cc2)OCCCC[C@@H](C)O3)cc1	inactive
O=C(C[C@@H]1C=C[C@@H](NC(=O)c2ccc3c(c2)OCO3)[C@@H](CO)O1)NCc1ccc(Oc2ccccc2)cc1	inactive
O=P(O)(O)C(Sc1ccc(Cl)cc1)P(=O)(O)O	inactive
C[C@@H]1CN([C@@H](C)CO)C(=O)Cc2cc(NS(=O)(=O)c3ccc(Cl)cc3)ccc2O[C@@H]1CN(C)S(=O)(=O)c1cn(C)cn1	inactive
C[C@H](CO)N1C[C@H](C)[C@@H](CN(C)Cc2ccc3c(c2)OCO3)OCCCC[C@H](C)Oc2ccc(NS(=O)(=O)c3ccc(Cl)cc3)cc2C1=O	inactive
CN1CCN(C(=O)C[C@H]2CC[C@@H]3[C@H](COC[C@@H](O)CN3C(=O)C3CCOCC3)O2)CC1	inactive
C[C@H](CO)N1C[C@H](C)[C@@H](CN(C)Cc2ccc(C(F)(F)F)cc2)OCCCC[C@H](C)Oc2ccc(N(C)C)cc2C1=O	inactive
